The full ranking holds about 33,000 sequences; the median of “E-score (-0.5 to 0.5)” is about -0.012, and the highest 2% start at about 0.29. This is one part of the list.
These sequences were tested against T1, Ybr033w (UniProt P38073) (assay: PBM E-score (8-mer binding enrichment) (E-score (-0.5 to 0.5)); higher = stronger / more preferred TF binding; most listed sequences are background and not binding sites). Details: protein concentration: 200 nM; construct: GST-full length.
T1 sequence: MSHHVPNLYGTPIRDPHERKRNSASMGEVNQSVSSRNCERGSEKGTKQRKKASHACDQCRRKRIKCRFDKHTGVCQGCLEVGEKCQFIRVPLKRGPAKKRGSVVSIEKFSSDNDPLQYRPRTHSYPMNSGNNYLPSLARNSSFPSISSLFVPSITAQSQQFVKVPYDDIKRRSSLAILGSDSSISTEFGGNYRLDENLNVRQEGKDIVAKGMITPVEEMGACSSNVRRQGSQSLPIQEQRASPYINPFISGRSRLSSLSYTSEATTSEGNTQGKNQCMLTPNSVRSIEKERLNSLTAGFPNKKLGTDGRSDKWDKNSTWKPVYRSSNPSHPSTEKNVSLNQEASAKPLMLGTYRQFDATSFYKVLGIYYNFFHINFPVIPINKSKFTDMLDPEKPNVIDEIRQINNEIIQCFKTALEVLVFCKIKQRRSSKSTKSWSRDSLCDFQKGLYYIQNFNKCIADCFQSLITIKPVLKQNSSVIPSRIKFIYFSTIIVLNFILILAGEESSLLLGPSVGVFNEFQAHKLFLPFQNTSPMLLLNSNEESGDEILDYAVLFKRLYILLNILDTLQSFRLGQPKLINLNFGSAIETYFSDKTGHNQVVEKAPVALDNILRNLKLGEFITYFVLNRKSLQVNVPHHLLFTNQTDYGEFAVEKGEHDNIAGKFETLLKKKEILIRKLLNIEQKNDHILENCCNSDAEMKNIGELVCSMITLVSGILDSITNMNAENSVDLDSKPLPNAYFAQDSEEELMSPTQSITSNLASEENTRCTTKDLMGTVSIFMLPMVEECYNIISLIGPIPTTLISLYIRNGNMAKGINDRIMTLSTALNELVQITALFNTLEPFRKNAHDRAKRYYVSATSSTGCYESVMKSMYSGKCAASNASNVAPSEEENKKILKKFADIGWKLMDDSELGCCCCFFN
In short: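 Universal all-10-mer Agilent arrays, double-stranded by primer extension on fresh or once-stripped slides, were probed with about 100-200 nM GST-tagged yeast transcription factors made by PURExpress. Fluorescent anti-GST detected bound protein, and masliner normalised the scans. E-scores from the Universal PBM Analysis Suite were given to each ungapped eight-base word pooled with its reverse complement.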

| Sequence | PBM E-score |
| --- | --- |
| CCGTTTCC | -0.0353 |
| CGTCCCTC | -0.217 |
| AAGTGGCT | -0.014 |
| GCAGACTA | -0.0945 |
| CCGAAAGC | -0.223 |
| TAACGTGA | -0.0631 |
| GGGATGGA | -0.308 |
| CATGTTCG | -0.0241 |
| CGAAAAAA | 0.213 |
| ACGCTGCG | -0.106 |
| CTTACCTC | -0.232 |
| ATCCCAGC | -0.0249 |
| TCAGAGGA | -0.185 |
| CGCTGCAG | -0.12 |
| CAAGGCCG | -0.0978 |
| AAGTAGTC | 0.0604 |
| GATGTTAC | 0.153 |
| GGCATAGA | 0.00074 |
| AGCCACTC | -0.275 |
| GGACTTAA | -0.133 |
| AAAGTTCG | 0.0769 |
| CGAACCAA | 0.161 |

| Sequence | PBM E-score |
| --- | --- |
| CCCGCGAG | -0.162 |
| AAAATCAC | 0.285 |
| AGTCAAGA | -0.0169 |
| AAGGTGAA | -0.0947 |
| GTAGAAAC | 0.106 |
| AACCGTAG | -0.218 |
| AAAATTTT | 0.293 |
| ATTTGCTA | 0.177 |
| TCCCAACA | -0.0027 |
| CGCTCAAG | -0.115 |
| CCTCAACA | 0.0703 |
| ACCCAGTC | -0.178 |
| CGAAGCAA | 0.0447 |
| CAGTTCCA | 0.0467 |
| CACACTGC | -0.138 |
| AGTCCTAT | 0.145 |
| ATGTGCCA | -0.0592 |
| AATTACAG | 0.225 |
| CCTATCCC | -0.138 |
| CTTAAAGC | -0.0103 |
| CCACTGGA | -0.0583 |
| ATCCTGAG | 0.0527 |

| Sequence | PBM E-score |
| --- | --- |
| AACGTGAT | 0.0757 |
| CCGATTGA | -0.0131 |
| CCATGGCG | -0.104 |
| CCAAAATC | 0.11 |
| AGACGCCC | -0.179 |
| GCGCCACA | -0.0765 |
| AAATTTTA | 0.171 |
| CTTCACGC | 0.0228 |
| CTCCCGAA | -0.125 |
| ATCCACTA | 0.122 |
| CACAGTGC | -0.0524 |
| AAAATGCA | 0.0946 |
| AACTCAGA | 0.0822 |
| CCTTTCCG | -0.152 |
| GCATATCA | 0.138 |
| GCCTTTCC | -0.254 |
| GGAAACCC | 0.0664 |
| AAACCAAT | 0.272 |
| GCGTTAAA | 0.0229 |
| CAACATGA | 0.137 |
| CAGCTAAA | 0.17 |
| GGGGAGAC | -0.311 |

| Sequence | PBM E-score |
| --- | --- |
| AACGTATT | 0.0826 |
| AGCAGTAT | 0.0236 |
| ACTCAAGG | -0.154 |
| GTACAAAA | 0.167 |
| TACCCCGA | -0.0991 |
| CAACGTTC | -0.0163 |
| ATTTCACC | 0.158 |
| CTTTCCTA | 0.0109 |
| AGGTTGGA | 0.179 |
| CTGTTGAA | 0.211 |
| ATCGTGTG | 0.0723 |
| ATTTTGGC | 0.145 |
| ACAGGCCA | -0.226 |
| ACTTTAAC | 0.0287 |
| ACTGGTTA | 0.0889 |
| CGTCAATC | 0.0124 |
| CAGTTGTA | -0.00378 |
| ATATCCCA | 0.156 |
| AGAAGTAG | 0.00438 |
| GATTGCGC | 0.134 |

From the supplement of paper PMC3334620
